Data reported in PubChem BioAssay (NCATS).
This list was built around the results that the source calls inconclusive (neither active nor inactive); the mix of calls is not that of the screen. Potencies beside an inconclusive call are fits to weak or partial responses and may not hold up. Activity calls are given as the source filed them. Calls follow the shape of the dose curve; as a rule, active = well fitted curve in the direction sought with a large enough effect; inconclusive = small, poorly fitted or top-dose-only effect, or another doubt; inactive = no such curve, though single readings can be large; an effect the other way counts as inactive or inconclusive.

Experiments:
[1] = Primary qHTS for inhibitors of nuclear receptor binding SET domain protein 2 (NSD2) in an isogenic RCH-ACV NSD2 p.E1099K mutant (9B) (AID 1645876); also: nearly all actives have a fitted effect of over 70% in size
[2] = Primary qHTS for inhibitors of nuclear receptor binding SET domain protein 2 (NSD2) in an RCH-ACV wild type WT cells (2C) (AID 1645877); also: nearly all actives have a fitted effect of over 70% in size
[3] = target: Phospholipid hydroperoxide glutathione peroxidase GPX4 (Homo sapiens) (UniProt P36969); assay: Primary qHTS Assay for Inhibitors of Recombinant Selenoprotein Glutathione Peroxidase 4 (GPX4) (AID 1845192); also: nearly all actives have a fitted effect of over 65% in size
Method in brief: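 NADPH consumption followed by fluorescence at 340/450 nm, t=0 and after 15 min at room temperature. Reaction started with cumene hydroperoxide (0.5 mM final) after 30 min compound–GPX4 preincubation; final 200 nM GPX4, 100 nM GR, 1 mM GSH, 0.5 mM NADPH.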
Potency is read from the fitted curve at half-maximal effect; tags tell the direction and shape of the fitted curve.

Sequence of UniProt P36969 (P36969 whole entry, looked up): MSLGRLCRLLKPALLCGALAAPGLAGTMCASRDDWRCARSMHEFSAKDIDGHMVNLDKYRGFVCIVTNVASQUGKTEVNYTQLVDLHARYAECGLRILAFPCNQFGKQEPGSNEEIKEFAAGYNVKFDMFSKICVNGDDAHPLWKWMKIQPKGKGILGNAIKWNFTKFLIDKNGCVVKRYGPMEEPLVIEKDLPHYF

Structure (SMILES): CC(C)OC(=O)[C@H](C)N[P@](=O)(OC[C@H]1O[C@@H](n2ccc(=O)[nH]c2=O)[C@](C)(F)[C@@H]1O)Oc1ccccc1
- Potency [1]: inconclusive: 11.8 µM [inhibitor, single point]
- Potency [2]: inconclusive: 11.8 µM [inhibitor, single point]

Structure (SMILES): Nc1cc(COc2c(Cl)cc(C[C@H](N)C(=O)O)cc2Cl)c2oc(-c3ccccc3)nc2c1
- Potency [1]: inconclusive: 14.8 µM [inhibitor, partial curve, poor fit]
- Potency [2]: inconclusive: 13.2 µM [inhibitor, partial curve]

Structure (SMILES): N#C/C(=C(\N)Sc1ccc(N)cc1)c1ccccc1C(F)(F)F
- Potency [1]: inconclusive: 18.4 µM [inhibitor, partial curve, poor fit]
- Potency [2]: inconclusive: 23.1 µM [inhibitor, single point]

Structure (SMILES): C[C@@H](O)[C@@H]1NC(=O)[C@H](CCCCN)NC(=O)[C@@H](Cc2c[nH]c3ccccc23)NC(=O)[C@H](Cc2ccccc2)NC(=O)[C@@H](NC(=O)[C@H](N)Cc2ccccc2)CSSC[C@@H](C(=O)N[C@H](CO)[C@@H](C)O)NC1=O
- Potency [1]: inconclusive: 12.9 µM [inhibitor, single point]
- Potency [2]: inconclusive: 18.2 µM [inhibitor, single point]
- Potency [3]: inconclusive: 11.1 µM [inhibitor, partial curve]

Structure (SMILES): CN(Cc1ccccc1)C(=O)c1ccc(S(=O)(=O)Nc2ccccc2)cc1
- Potency [1]: inconclusive: 18.6 µM [inhibitor, partial curve]
- Potency [2]: inconclusive: 18.6 µM [inhibitor, single point]

Structure (SMILES): NC1=N[C@@]2(c3cc(NC(=O)c4ccc(F)cn4)ccc3F)COC[C@H]2CS1
- Potency [1]: inactive
- Potency [2]: inactive
